Measured values from the supplement of paper PMC11125491.
± gives the standard deviation of the averaged measurements. Growth of baker's yeast expressing single-residue variants of Pneumocystis jirovecii dihydrofolate reductase in 8.8 or 44 µM methotrexate (about 75% and 90% inhibition of the wild type). Selection coefficient per generation; 0 = like wild type, above 0 = less sensitive, below 0 = more sensitive or loss of function. No active / inactive call per row; the paper calls resistant above 0.220 (8.8 µM) or 0.243 (44 µM) together with a significance test. At 44 µM about 15% of codons end with one read or none, so the lowest values are floors (replicate rank correlation 0.74; 0.94 at 8.8 µM).

B1: UniProt A0EPZ9; numbered along this chain (parent)
chain: MDWQKSLTLIVALTLSRGIGLKNDLPWKLKSDMMFFSRVTSGLLVTRSTGQMNVVLMGRKTWESLPAHSRPLKNRINVVISRQEVLDLGGGAYHARSLDDALALLSQIYDSTSKIQLNRVFVIGGGELCKAAMEHSRLNRIIATVIHNEVDCDVFFPIDFRSSQSCLPWRKQDHSVLEAWVGSKVPQGKINENGFIYEFEMWIRDI

Variants of: B1
Assay: selection coefficient against synonymous wild-type codons (log2 per generation); higher = faster growth than wild type
Conditions: with Saccharomyces cerevisiae carrying the variant on a plasmid
Description: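 Pooled growth of yeast carrying single-residue variants of P. jirovecii dihydrofolate reductase (own DFR1 gene intact), two passages at 30 °C, three cultures, sequenced before and after. Codons with under 15 starting reads are left out; codons of one change are averaged.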

Variant | selection coefficient against synonymous wild-type codons (log2) (methotrexate 8.8 µM) | selection coefficient against synonymous wild-type codons (log2) (methotrexate 44 µM)
MDWQKSLTLIVALTLSRGIGLKNDLPWKLKSDMMFFSRVTSGLLVTRSTGQMNVVLMGRKTWESLPAHSRPLKNRINVVISRQEVLDLGGGAYHARSLDDALALLSQIYDSTSKIQLNRVFVIGGGELCKAAMEHSRLNRIIATVIHNEVDCDVFFPIDFRSSQSCLPWRKQDHSVHEAWVGSKVPQGKINENGFIYEFEMWIRDI [L177H] | -0.178 ± 0.048 | -0.329 ± 0.079
MDWQKSLTLIVALTLSRGIGLKNDLPWKLKSDMMFFSRVTSGLLVTRSTGQMNVVLMGRKTWESLPAHSRPLKNRINVVISRQEVLDLGGGAYHARSLDDALALLSQIYDSTSKIQLNRVFVIGGGELCKAAMEHSRLNRIIATVIHNEVDCDVFFPIDFRSSQSCLPWRKQDHSVGEAWVGSKVPQGKINENGFIYEFEMWIRDI [L177G] | -0.11 ± 0.042 | -0.164 ± 0.1
MDWQKSLTLIVALTLSRGIGLKNDLPWKLKSDMMFFSRVTSGLLVTRSTGQMNVVLMGRKTWESLPAHSRPLKNRINVVISRQEVLDLGGGAYHARSLDDALALLSQIYDSTSKIQLNRVFVIGGGELCKAAMEHSRLNRIIATVIHNEVDCDVFFPIDFRSSQSCLPWRKQDHSVIEAWVGSKVPQGKINENGFIYEFEMWIRDI [L177I] | 0.00532 ± 0.0097 | -0.0699 ± 0.11
MDWQKSLTLIVALTLSRGIGLKNDLPWKLKSDMMFFSRVTSGLLVTRSTGQMNVVLMGRKTWESLPAHSRPLKNRINVVISRQEVLDLGGGAYHARSLDDALALLSQIYDSTSKIQLNRVFVIGGGELCKAAMEHSRLNRIIATVIHNEVDCDVFFPIDFRSSQSCLPWRKQDHSVMEAWVGSKVPQGKINENGFIYEFEMWIRDI [L177M] | 0.0135 ± 0.026 | -0.0694 ± 0.16
MDWQKSLTLIVALTLSRGIGLKNDLPWKLKSDMMFFSRVTSGLLVTRSTGQMNVVLMGRKTWESLPAHSRPLKNRINVVISRQEVLDLGGGAYHARSLDDALALLSQIYDSTSKIQLNRVFVIGGGELCKAAMEHSRLNRIIATVIHNEVDCDVFFPIDFRSSQSCLPWRKQDHSVCEAWVGSKVPQGKINENGFIYEFEMWIRDI [L177C] | -0.0531 ± 0.073 | -0.102 ± 0.018
MDWQKSLTLIVALTLSRGIGLKNDLPWKLKSDMMFFSRVTSGLLVTRSTGQMNVVLMGRKTWESLPAHSRPLKNRINVVISRQEVLDLGGGAYHARSLDDALALLSQIYDSTSKIQLNRVFVIGGGELCKAAMEHSRLNRIIATVIHNEVDCDVFFPIDFRSSQSCLPWRKQDHSVQEAWVGSKVPQGKINENGFIYEFEMWIRDI [L177Q] | -0.167 ± 0.027 | -0.203 ± 0.056
MDWQKSLTLIVALTLSRGIGLKNDLPWKLKSDMMFFSRVTSGLLVTRSTGQMNVVLMGRKTWESLPAHSRPLKNRINVVISRQEVLDLGGGAYHARSLDDALALLSQIYDSTSKIQLNRVFVIGGGELCKAAMEHSRLNRIIATVIHNEVDCDVFFPIDFRSSQSCLPWRKQDHSVREAWVGSKVPQGKINENGFIYEFEMWIRDI [L177R] | -0.707 ± 0.16 | -0.34 ± 0.068
MDWQKSLTLIVALTLSRGIGLKNDLPWKLKSDMMFFSRVTSGLLVTRSTGQMNVVLMGRKTWESLPAHSRPLKNRINVVISRQEVLDLGGGAYHARSLDDALALLSQIYDSTSKIQLNRVFVIGGGELCKAAMEHSRLNRIIATVIHNEVDCDVFFPIDFRSSQSCLPWRKQDHSVDEAWVGSKVPQGKINENGFIYEFEMWIRDI [L177D] | -0.679 ± 0.18 | -0.474 ± 0.032
MDWQKSLTLIVALTLSRGIGLKNDLPWKLKSDMMFFSRVTSGLLVTRSTGQMNVVLMGRKTWESLPAHSRPLKNRINVVISRQEVLDLGGGAYHARSLDDALALLSQIYDSTSKIQLNRVFVIGGGELCKAAMEHSRLNRIIATVIHNEVDCDVFFPIDFRSSQSCLPWRKQDHSVPEAWVGSKVPQGKINENGFIYEFEMWIRDI [L177P] | -0.724 ± 0.058 | -0.371 ± 0.077
MDWQKSLTLIVALTLSRGIGLKNDLPWKLKSDMMFFSRVTSGLLVTRSTGQMNVVLMGRKTWESLPAHSRPLKNRINVVISRQEVLDLGGGAYHARSLDDALALLSQIYDSTSKIQLNRVFVIGGGELCKAAMEHSRLNRIIATVIHNEVDCDVFFPIDFRSSQSCLPWRKQDHSVKEAWVGSKVPQGKINENGFIYEFEMWIRDI [L177K] | -0.357 ± 0.035 | -0.127 ± 0.05
MDWQKSLTLIVALTLSRGIGLKNDLPWKLKSDMMFFSRVTSGLLVTRSTGQMNVVLMGRKTWESLPAHSRPLKNRINVVISRQEVLDLGGGAYHARSLDDALALLSQIYDSTSKIQLNRVFVIGGGELCKAAMEHSRLNRIIATVIHNEVDCDVFFPIDFRSSQSCLPWRKQDHSVEEAWVGSKVPQGKINENGFIYEFEMWIRDI [L177E] | -0.27 ± 0.021 | -0.065 ± 0.063
MDWQKSLTLIVALTLSRGIGLKNDLPWKLKSDMMFFSRVTSGLLVTRSTGQMNVVLMGRKTWESLPAHSRPLKNRINVVISRQEVLDLGGGAYHARSLDDALALLSQIYDSTSKIQLNRVFVIGGGELCKAAMEHSRLNRIIATVIHNEVDCDVFFPIDFRSSQSCLPWRKQDHSVNEAWVGSKVPQGKINENGFIYEFEMWIRDI [L177N] | -0.241 ± 0.033 | -0.233 ± 0.1
MDWQKSLTLIVALTLSRGIGLKNDLPWKLKSDMMFFSRVTSGLLVTRSTGQMNVVLMGRKTWESLPAHSRPLKNRINVVISRQEVLDLGGGAYHARSLDDALALLSQIYDSTSKIQLNRVFVIGGGELCKAAMEHSRLNRIIATVIHNEVDCDVFFPIDFRSSQSCLPWRKQDHSVFEAWVGSKVPQGKINENGFIYEFEMWIRDI [L177F] | -0.0839 ± 0.041 | -0.12 ± 0.054
MDWQKSLTLIVALTLSRGIGLKNDLPWKLKSDMMFFSRVTSGLLVTRSTGQMNVVLMGRKTWESLPAHSRPLKNRINVVISRQEVLDLGGGAYHARSLDDALALLSQIYDSTSKIQLNRVFVIGGGELCKAAMEHSRLNRIIATVIHNEVDCDVFFPIDFRSSQSCLPWRKQDHSVAEAWVGSKVPQGKINENGFIYEFEMWIRDI [L177A] | 0.0563 ± 0.068 | -0.026 ± 0.14
MDWQKSLTLIVALTLSRGIGLKNDLPWKLKSDMMFFSRVTSGLLVTRSTGQMNVVLMGRKTWESLPAHSRPLKNRINVVISRQEVLDLGGGAYHARSLDDALALLSQIYDSTSKIQLNRVFVIGGGELCKAAMEHSRLNRIIATVIHNEVDCDVFFPIDFRSSQSCLPWRKQDHSYLEAWVGSKVPQGKINENGFIYEFEMWIRDI [V176Y] | -0.114 ± 0.043 | -0.178 ± 0.041
